Source: publication PMC4271846 (Journal of neuroscience research, 2008)

Target: purified nucleotide-free recombinant wild-type bovine hsc70 (bovine, UniProt P19120)
Test: SPR

Sequence of UniProt P19120 (P19120 whole entry): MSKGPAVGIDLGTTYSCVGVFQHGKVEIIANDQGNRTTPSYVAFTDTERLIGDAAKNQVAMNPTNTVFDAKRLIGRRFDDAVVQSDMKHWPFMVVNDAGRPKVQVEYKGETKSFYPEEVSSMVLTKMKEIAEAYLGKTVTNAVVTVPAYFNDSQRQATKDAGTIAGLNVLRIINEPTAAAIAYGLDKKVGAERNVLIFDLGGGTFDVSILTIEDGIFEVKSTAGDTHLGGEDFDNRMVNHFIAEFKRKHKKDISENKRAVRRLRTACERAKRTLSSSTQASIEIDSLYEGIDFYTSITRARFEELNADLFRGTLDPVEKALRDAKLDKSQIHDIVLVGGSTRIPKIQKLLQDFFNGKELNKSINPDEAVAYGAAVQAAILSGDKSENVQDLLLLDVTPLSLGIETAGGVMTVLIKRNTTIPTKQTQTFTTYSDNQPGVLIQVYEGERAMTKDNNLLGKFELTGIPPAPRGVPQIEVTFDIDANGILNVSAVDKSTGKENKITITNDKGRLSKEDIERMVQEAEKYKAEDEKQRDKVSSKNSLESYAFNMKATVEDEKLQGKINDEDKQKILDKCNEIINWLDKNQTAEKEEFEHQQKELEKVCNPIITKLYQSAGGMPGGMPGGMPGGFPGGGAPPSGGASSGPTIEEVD

Kd: 160 nM | koff: 0.00344 s⁻¹ | kon: 21600 M⁻¹ s⁻¹
B1: recombinant human wild-type 4R tau (0N4R), untagged (natural protein)
chain: not shown
